The source of these data is ChEMBL document CHEMBL1201862, “PubChem BioAssay data set” (2004).

Where “and” joins values, the source holds several entries; their conditions need not be identical. Equal values may be shown once.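 In this assay, cells in 96-well plates receive the compound at five concentrations for 48 hours. Endpoints are linearly interpolated between the surrounding concentrations. GI50 is the concentration that inhibits growth by half.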 Calls of active or inactive are those of the source. No stated cut-off is given here; in the data, active = GI50 up to about 1.1 µM and inactive = higher.

This assay deals with NCI-H322M. As to the kind of experiment: inhibition of tumour cell growth, NCI panel, 48 h.
On to `O=C1c2ccccc2C(=O)c2c(NCC3CO3)ccc(NCC3CO3)c21` (stereo unspecified), for which the GI50 is inactive: 12.9 µM.

As to `O=c1c2ccccc2[nH]c2c(O)ccc(O)c12`, the GI50 was inactive: 45.9 µM.

Consider `O=[N+]([O-])C(=C1NCCN1)C(Cl)=C(Cl)Cl`, for which the GI50 is inactive: > 100 µM.

On to `O=C(Nc1ccc(-c2cn3ccccc3n2)cc1)c1cc(Br)ccc1O`, for which the GI50 is inactive: > 100 µM.

With `Cc1ccnc(NS(=O)(=O)c2ccc(N=[N+]=[N-])cc2)n1`, the GI50 is inactive: > 100 µM.

Regarding `NS(=O)(=O)OCCCCCCCOS(N)(=O)=O`, the GI50 was inactive: 504 µM.

As for `COc1ccc(CC(C)NCC(O)c2ccc(O)c(NC=O)c2)cc1` (stereo unspecified), the GI50 was inactive: > 100 µM.

On to `Cc1cc(=O)oc2c(CNC(CO)C(=O)O)c(O)ccc12` (stereo unspecified), for which the GI50 is inactive: > 100 µM.

Take `COc1ccc(/N=C2\C(=N/c3ccc(OC)cc3)N(c3ccccc3[N+](=O)[O-])C(=S)N2c2ccc(OC)cc2)cc1`: the GI50 is inactive: > 100 µM.

As for `C[C@H]1CCC/C=C/[C@@H]2C[C@H](OC(=O)CN(C)C)C[C@H]2[C@H](O)/C=C/C(=O)O1`, the GI50 was active: 0.1 µM.

Consider `Cn1/c(=N\N=C2\C=C3CCCCC3(C)CC2)sc2ccccc21` (stereo unspecified), for which the GI50 is inactive: > 100 µM.

In the case of `CC(=O)NC1C(OCc2ccccc2)OC(CO)C(O)C1OCC(=O)N1CCCC1C(=O)NC(CCC(=O)NCCCCCNc1c2ccccc2nc2cccc([N+](=O)[O-])c12)C(N)=O` (stereo unspecified), the GI50 was active: 0.0288 µM.

In the case of `COc1ccc(Nc2nc3ccc(C(F)(F)F)cc3nc2C(=O)O)cc1`, the GI50 was inactive: 47.9 µM.

Take `Cn1c(=O)nc2n(CCO)ccnc-2c1=O`: the GI50 was inactive: > 100 µM.

With `Cc1cc2c(cc1Cl)SC(N/N=C(\N)c1ccc(Cl)cc1)=NS2(=O)=O`, the GI50 was inactive: 57.9 µM.

Turning to `CCCCC(C(=O)CCC(=O)Nc1ccc(Cl)cc1)C(=O)C(C)C` (stereo unspecified), the GI50 is inactive: > 100 µM.

For `COc1cc2c(=O)cnoc2cc1O`, the GI50 is inactive: > 100 µM.

Regarding `[C-]#[N+][C@@H]1C2[C@H](CC[C@@]1(C)O)C(=C)CC[C@@H]2[C@@]1(C)CC[C@H](Cl)C(C)(C)O1` (stereo partly specified), the GI50 was inactive: 7.62 µM.

Regarding `COC(=O)C(CCS(=O)(=O)CC(=O)C(=O)Nc1cccc(C(C)=O)c1)C(=O)OC`, the GI50 is inactive: > 100 µM.

As for `COc1ccc2c3ccc4c(c3n(C)c2c1)C(=O)c1ccccc1C4=O`, the GI50 is inactive: 48.2 µM.

With `CNc1ncnc2c1ncn2C1C=CC(COS(N)(=O)=O)C1` (stereo unspecified), the GI50 is inactive: > 100 µM.

For the compound `c1ccc(Cc2cc(-c3ccccc3)[nH]n2)cc1`, the GI50 was inactive: 12.5 µM.

Turning to `C/C(=C\C(=O)O)C(=O)N(C)c1ccccc1I`, the GI50 is inactive: > 100 µM.

Take `CC(C)(C)OC(=O)NCCCCCCC(=O)Cc1ccccc1`: the GI50 is inactive: > 100 µM.

As for `Cc1[nH]c2c(c1Cc1ccccc1)C1=NC=C(O)NN1C=N2`, the GI50 is inactive: > 100 µM.

Take `CC1CCCC(C(=O)CC2CC(=O)NC(=O)C2)C1=O` (stereo unspecified): the GI50 was inactive: > 100 µM.

Turning to `CC(O[Si](C)(C)C)C1C=CC(C)n2c(=O)n(-c3ccccc3)c(=O)n21` (stereo unspecified), the GI50 was inactive: > 100 µM.

Turning to `NNc1c(C(N)=O)c2c(N)ncnc2n1C1OC(CO)C(O)C1O` (stereo unspecified), the GI50 is active: 0.139 µM.

As to `COC(=O)CCc1cccnc1/C=N/O`, the GI50 is inactive: > 100 µM.

In the case of `O=C(c1ccccc1)C1S(=O)(=O)OCCOS1(=O)=O`, the GI50 was inactive: > 100 µM.

With `COc1ccc(-n2cnc3c(NCC(=O)O)ncnc32)cc1`, the GI50 is inactive: > 100 µM.

For the compound `N#CCCN(CCCCN(CCC#N)C(=O)Nc1ccccc1)C(=O)Nc1ccccc1`, the GI50 is inactive: > 100 µM.

Take `COc1ccccc1NC(=O)C1=C(C)NC(C)=C(C(=O)Nc2ccccc2OC)C1c1ccccc1F`: the GI50 was inactive: > 100 µM.

In the case of `COc1cc(OC)c(/C=N\Nc2nc3ccccc3c(=O)n2-c2ccccc2)c(OC)c1`, the GI50 was inactive: 23.5 µM.

As for `O=[N+]([O-])c1ccc(-c2cc(O)c3nc4ccccc4n3c2)cc1`, the GI50 is inactive: > 100 µM.

Regarding `CC1(C)CC(=O)C2=C(C1)S/C(=C1/SC3=C(S1)C(=O)CC(C)(C)C3)S2`, the GI50 was inactive: > 251 µM.

As to `CCCCCCCCCCCCCCCCCCNC(=S)N/C=C1\C(=O)Nc2ccccc2C1=O`, the GI50 was inactive: 18.7 µM.

As for `C=CCSc1nc2c(N)ncnc2n1C1OC(CO)C(O)C1O` (stereo unspecified), the GI50 is inactive: > 100 µM.

As to `CC(C)(C)c1cc(C(O)(C(F)(F)F)C(F)(F)F)c2c(c1)C(C(F)(F)F)(C(F)(F)F)OC(C(C)(C)C)N2` (stereo unspecified), the GI50 was inactive: 3.48 µM.

As for `O=c1oc2c(Cl)cc(Cl)cc2cc1C1=CSC2=NCCN12`, the GI50 was inactive: 68.7 µM.

In the case of `O=C(OCC(Cl)(Cl)Cl)N1CC[C@H](C2CCCCC2)C1`, the GI50 is inactive: 17.5 µM.

Take `O=C1c2ccccc2C(=O)c2c(NCC3CO3)cccc21` (stereo unspecified): the GI50 was inactive: > 51.4 µM.

For the compound `Cc1cc(N(CCC#N)CCC#N)ccc1C(/N=N/c1ccc(C(=O)O)cc1)=N\NC(=O)c1ccccc1`, the GI50 is inactive: 62.1 µM.

For `Cc1ccc(S(=O)(=O)NC2CCCCO2)cc1` (stereo unspecified), the GI50 was inactive: > 100 µM.

For `CC1(C)CC2C=C(C=O)C3(C=O)CC3(C)C2C1` (stereo unspecified), the GI50 is inactive: 11.8 µM.

Turning to `CCOC(=O)/C(C(=O)Nc1cccc(C(F)(F)F)c1)=C(/N)N1CCOCC1`, the GI50 was inactive: > 100 µM.

Consider `C/C(=N\C1CCCCC1)c1ccccc1O`, for which the GI50 is inactive: > 100 µM.

For `CCCCCCCCCCCCCC(=O)OCC1OC(=O)C(O)C1O` (stereo unspecified), the GI50 is inactive: > 100 µM.

Take `CCCCCCCCCOC(=S)NCCCCC`: the GI50 is inactive: 61.1 µM.

As to `C=CC/N=C1\N=C(C)C(C(=O)OCC)S1` (stereo unspecified), the GI50 is inactive: > 100 µM.

Regarding `COc1cc2cc[n+]3c4cc(OC)c(OC)cc4c(C)cc3c2cc1OC`, the GI50 was inactive: > 100 µM.

Regarding `COC1C(OC(C)=O)CC(=O)OC(C)C/C=C/C=C\C(O)C(C)CC(CC=O)C1OC1OC(C)C(OC2CC(C)(O)C(OC(=O)CC(C)C)C(C)O2)C(N(C)C)C1O` (stereo unspecified), the GI50 was inactive: > 100 µM and inactive: 67.5 µM.

Take `O=c1[nH]c(=O)n(C2CC(O)C(CO)O2)cc1OS(=O)(=O)C(F)(F)F` (stereo unspecified): the GI50 was inactive: > 100 µM.

Turning to `O=C(CC1Sc2ccccc2NC1=O)Nc1ccc([N+](=O)[O-])cc1[N+](=O)[O-]` (stereo unspecified), the GI50 was inactive: 36.6 µM.

With `C[Si]1(C)C(c2ccccc2)=CC2C(c3ccccc3)(c3ccccc3)OC21c1ccccc1` (stereo unspecified), the GI50 is inactive: > 100 µM.

Take `O=C1C(=O)N(c2ccc(Cl)cc2)C(=O)C(=O)C1c1nc2ccccc2o1`: the GI50 is inactive: > 100 µM.

Turning to `Clc1cccc(/N=C/C=C/Nc2cccc(Cl)c2)c1`, the GI50 was inactive: > 10 µM.

Turning to `Cc1ccc(Oc2ccccc2N)cc1`, the GI50 was inactive: 25.4 µM.

As for `CCOC(=O)C(NC(=O)c1nc[nH]c1/N=N/N(C)C)C(C)C` (stereo unspecified), the GI50 is inactive: > 100 µM.

Turning to `COc1cccc(C=O)c1C(=O)c1cc(O)ccc1O`, the GI50 is inactive: > 100 µM.

Regarding `CC1OC(OC2C(CO)OC(O[C@H]3CC[C@@]4(C)C(=CC[C@H]5[C@@H]6C[C@@H]7O[C@](O)(CC[C@@H](C)COC8OC(CO)C(O)C(O)C8O)[C@@H](C)[C@@H]7[C@@]6(C)CC[C@@H]54)C3)C(OC3OC(C)C(O)C(O)C3O)C2O)C(O)C(O)C1O` (stereo partly specified), the GI50 is inactive: 2.83 µM.

`C=CCn1c(=O)c(-c2ccccc2)c(O)c2ccccc21`: the GI50 is inactive: > 100 µM.

For `CC1CC/C(=C\c2ccc(Cl)cc2)c2nc(N)c(C#N)c(-c3ccc(Cl)cc3)c21` (stereo unspecified), the GI50 is inactive: > 100 µM.

As to `CNC(=O)c1cc(NC(=O)N(CCC#N)CCN(C(=O)N[C@@H](Cc2ccccc2)C(=O)N[C@@H](CC(C)C)C(=O)NC)c2ccccc2)ccc1OC`, the GI50 is inactive: > 87.3 µM.

Regarding `O=C1C(CN2CCCC2)CCC1CN1CCCC1` (stereo unspecified), the GI50 is inactive: > 100 µM.

Regarding `Nc1nc(Cl)cc(OCC2(CO)CCCC2)n1`, the GI50 was inactive: > 100 µM.

Take `O=C(c1nc2ccc(Cl)cc2nc1O)C(O)c1ccc2c(c1)OCO2` (stereo unspecified): the GI50 is inactive: > 100 µM.

With `Cc1c(-c2ccccc2)[nH]c2ccc(Cl)cc2c1=O`, the GI50 was inactive: 81.7 µM.

Turning to `CCOC(=O)c1c(N2CCOCC2)[nH]c(=O)c(C(c2ccc(N(C)C)cc2)c2c(O)c(C(=O)OCC)c(N3CCOCC3)[nH]c2=O)c1O`, the GI50 is inactive: > 100 µM.

In the case of `NCCCC(N/C=C1/N=C(c2ccccc2)OC1=O)C(=O)O` (stereo unspecified), the GI50 is inactive: > 100 µM.

On to `COc1cccc(/C=N/C(/N=C/c2cccc(OC)c2O)c2cccc(OC)c2O)c1O`, for which the GI50 was active: 0.673 µM.

Turning to `CC(C)(C)OC(=O)NNC(=O)C1Cc2ccccc2OC1=O` (stereo unspecified), the GI50 is inactive: > 100 µM.

Consider `CN(NC(=O)/C(=C\c1ccco1)NC(=O)c1ccccc1)c1cn[nH]c(=O)c1Cl`, for which the GI50 is inactive: > 100 µM.

As to `CN(C)c1ccc(/C=N/c2ccc(Oc3ccc(Cl)cc3)c(Cl)c2)cc1`, the GI50 was inactive: 19.1 µM.

Regarding `O=C(Nc1nccs1)NS(=O)(=O)n1cnc2ccccc21`, the GI50 was inactive: > 100 µM.

Regarding `CC(=O)OC1C[C@@H](C)C2(C[C@H](O)c3ccoc3)C(=O)OC[C@]13C2CCC(O)C31CO1` (stereo partly specified), the GI50 is inactive: > 100 µM.

As for `Cn1c(=O)c2c(ncn2CCSS(=O)(=O)O)n(C)c1=O`, the GI50 is inactive: > 100 µM.

As to `C[n+]1c(-c2ccc(/C=N/NC(=O)C(=O)N/N=C/c3ccc(-c4cn5ccccc5[n+]4C)cc3)cc2)cn2ccccc21`, the GI50 was inactive: > 100 µM.

For the compound `CC[S+]([O-])C(=O)N(O)c1ccc(Cl)cc1` (stereo unspecified), the GI50 was inactive: > 100 µM.

As to `C=C1C(=O)O[C@@H]2C[C@@H]3[C@]4(CC[C@]5(C)[C@@H]([C@H](C)CC/C=C(\C)C=O)CC[C@@]35C)C[C@]4(CCC(=O)OC)[C@H]12`, the GI50 is inactive: 2.55 µM.

As for `O=C1Cc2c([nH]c3ccc(C(=O)O)cc23)-c2ccccc2N1`, the GI50 is inactive: 5.37 µM.
